Assay results taken from PubChem BioAssay AID662 (National Center for Advancing Translational Sciences (NCATS), 2007).
In all, about 71,000 compounds went through this assay and about 1,800 (2.5%) were called active. The inconclusive results got no clear call from the source; some entries with a clear call stand among them for comparison. Calls follow the shape of the dose curve; as a rule, active = well fitted activation curve with a large enough effect in the signal ratio, with a control signal flat (not every such curve was filed as active); inconclusive = small, poorly fitted or top-dose-only effect, or effect the other way, or a change in a side signal; inactive = flat fitted curve, though single readings scatter; the % refers to the signal ratio. Where the call is inconclusive, the potency comes from a doubtful curve fit.
Potency is read from the fitted curve at half-maximal effect; tags tell the direction and shape of the fitted curve.

Assay: Cell signaling CRE-BLA (Fsk stim); as to activity change, negative = inhibition: % of control where 0% means no effect
Conditions: CHO CRE-bla reporter (cAMP response element driving beta-lactamase), forskolin EC10, beta-lactamase ratio; activity change, negative = inhibition: at 38.2 µM (top of the series) unless noted
Outline: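 Titrated compounds plus EC10 NKH 477 on CHO CRE-bla cells, 3 h, 37 °C. CCF4, 2 h RT. Ratio 460/530 nm → AC50.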
In the case of `CCOc1ccccc1OCCCCN1CCCC1`, the activity change, negative = inhibition is reported as inconclusive: -17.5%.
In the case of `CCCC(=O)Nc1cc(Cl)ccc1N1CCN(C(=O)CC)CC1`, the activity change, negative = inhibition is reported as inconclusive: 10.1%.
For `Nc1ccc(-c2nc3ccccc3[nH]2)cc1`, the “activity change, negative = inhibition” value was inactive: -15.9%.
For `CCOC(=O)c1cnn2c(C(F)(F)F)cc(-c3ccccc3)nc12`, the Potency was inconclusive: 15.8 µM [rising, partial curve].
With `CC1CCN(c2nc3c(c(=O)n(C)c(=O)n3C)n2CCSc2nc3ccccc3o2)CC1` the “activity change, negative = inhibition” value was inactive: -5.94%.
For `Cn1ncc2c(Cl)ncnc21`, the activity change, negative = inhibition was inactive: -3.89% [at 7.6 µM].
For `COc1ccc(C2=NOC(C(=O)Nc3ccc(C(C)=O)cc3)C2)cc1OC` (stereo not given), the Potency was inconclusive: 0.0158 µM [rising, full curve, poor fit].
With `Clc1cccc(Cl)c1COc1ccncc1` the activity change, negative = inhibition was inconclusive: -4.03%.
With `O=C(NCCCN1CCCC1=O)c1ccc2c(=O)n(Cc3ccco3)c(=S)[nH]c2c1` the activity change, negative = inhibition was inconclusive: 0.436%.
For `Cn1nnnc1Sc1ncnc2scc(-c3ccc(F)cc3)c12`, the Potency was inconclusive: 7.94 µM [rising, partial curve].
In the case of `C(=N\n1cnnc1)/c1cn(Cc2ccccc2)c2ccccc12`, the activity change, negative = inhibition is reported as inconclusive: 25.9%.
For `O=C(CSc1nnnn1Cc1ccccc1)c1ccccc1`, the “activity change, negative = inhibition” value was inactive: -8.08%.
In the case of `CC(=O)CCc1oc2ccc(NC(C)=O)cc2c1-c1ccc(C)o1`, the “activity change, negative = inhibition” value is reported as inactive: 9.37%.
For `COCCNc1ncnc2ccc(-c3c(C)noc3C)cc12`, the Potency was inconclusive: 6.31 µM [rising, single point].
With `Clc1ccc(Cn2cc(Br)cn2)cc1Cl` the Potency was inconclusive: 1.26 µM [falling, partial curve].
With `CCCn1c(=O)c(C(=O)Nc2nnc(C)s2)c(O)c2ccccc21` the activity change, negative = inhibition was inconclusive: -25.5%.
For `Nc1ncnc2c1ncn2CCN1CCOCC1`, the “activity change, negative = inhibition” value was inactive: -3.31%.
For `COc1ccccc1Nc1ncnc2ccccc12`, the Potency was inconclusive: 5.01 µM [falling, single point].
In the case of `CCS(=O)(=O)N1CCC(C(=O)NC2CCCCC2)CC1`, the Potency is reported as inconclusive: 0.01 µM [falling, full curve, poor fit].
With `COCCNC(=O)CN(c1ccccc1OC)S(C)(=O)=O` the Potency was inconclusive: 0.00316 µM [falling, partial curve, poor fit].
With `O=CNCC(=O)NCCc1ccc(Cl)cc1` the activity change, negative = inhibition was inconclusive: 5.8%.
In the case of `CN(N=O)C(=O)N[C@H]1[C@@H](O)[C@H](O)[C@H](CO)O[C@@H]1O`, the “activity change, negative = inhibition” value is reported as inactive: 1.82% [at 17.1 µM].
With `Cc1nc(-c2ccccc2)cc(N2CCCC2)n1` the activity change, negative = inhibition was inconclusive: 24.8% [at 7.6 µM].
In the case of `O=C(COc1ccccc1)N(Cc1ccco1)C1CCS(=O)(=O)C1` (stereo not given), the “activity change, negative = inhibition” value is reported as inactive: -1.43%.
In the case of `CCOC(=O)N1CCN(C(=O)Cn2ncn3nc(-c4cccs4)cc3c2=O)CC1`, the “activity change, negative = inhibition” value is reported as inactive: -3.73%.
In the case of `CCCCc1n[nH]c2c1/C(=N/O)CC(c1ccccc1)C2` (stereo not given), the activity change, negative = inhibition is reported as inconclusive: 8.97%.
With `COC(=O)Cc1c(C)c2cc(Cl)c(OC(=O)c3ccco3)cc2oc1=O` the Potency was inconclusive: 12.6 µM [rising, partial curve].
With `COCCNC(=O)CN(C(=O)Cn1nnc2ccccc21)c1ccccc1` the “activity change, negative = inhibition” value was inactive: -0.691%.
For `c1ccc2nc3c(nc2c1)[nH]c1ccccc13`, the Potency was active: 10 µM.
For `COc1ccccc1C(=O)NCc1ccncc1`, the “activity change, negative = inhibition” value was inactive: 5.7%.
In the case of `CCN(CC)c1ccc(C2C(C(=O)Nc3ccccn3)=C(C)NC3=C2C(=O)CC(C)(C)C3)cc1` (stereo not given), the Potency is reported as inconclusive: 5.01 µM [rising, partial curve, poor fit].
With `O=C(Nc1ccc(S(=O)(=O)N2CCOCC2)cc1)c1ccc(Cl)s1` the Potency was inconclusive: 12.6 µM [rising, single point].
In the case of `COc1ccc(C(O)P(=O)(OC2CCCCC2)c2ccc(N(C)C)cc2)cc1OC` (stereo not given), the activity change, negative = inhibition is reported as inconclusive: -3.57%.
For `Cc1ccccc1-c1nc(CN2CCC(C(=O)NCCC3=CCCCC3)CC2)c(C)o1`, the activity change, negative = inhibition was inconclusive: 0.044%.
For `COc1ccc(C)cc1NC(=O)CN1CCN(c2ccccc2F)CC1`, the activity change, negative = inhibition was inconclusive: 4.27%.
In the case of `Cc1cc(=O)[nH]c(SCCOc2ccc3c(c2)CCC3)n1`, the “activity change, negative = inhibition” value is reported as inactive: -16.6%.
In the case of `CCOCC(=O)Nc1nnc(Cc2ccc(OC)c(OC)c2)s1`, the activity change, negative = inhibition is reported as inconclusive: 26.5%.
With `Cc1nc(NC2=NCN(Cc3cccnc3)CN2)nc2ccccc12` the “activity change, negative = inhibition” value was inactive: -0.872%.
For `COc1ccc(-c2ccc(-c3noc(-c4ccco4)n3)c(OC)n2)cc1`, the “activity change, negative = inhibition” value was inactive: 26.8%.
In the case of `CS(=O)(=O)Nc1ccccc1C(=O)N1CCOCC1`, the “activity change, negative = inhibition” value is reported as inactive: -1.84%.
With `c1ccc2c(NC3CC3)nc(-c3ccoc3)nc2c1` the activity change, negative = inhibition was inconclusive: 23.3%.
For `Cc1ccc(S(=O)(=O)C(C#N)c2nc3ccccc3nc2OC(C)C)cc1` (stereo not given), the “activity change, negative = inhibition” value was inactive: 2.35%.
For `Cn1c(=O)c(-c2cccc(Cl)c2)nc2cncnc21`, the Potency was active: 12.6 µM.
For `COc1ccc(CCNC(=O)CN2C(=O)C3(OCCCO3)c3ccccc32)cc1OC`, the activity change, negative = inhibition was inconclusive: 14.3%.
For `Cc1c(NC(=O)CC2CC(C)OC2=O)c(=O)n(-c2ccccc2)n1C` (stereo not given), the activity change, negative = inhibition was inconclusive: 8.38%.
With `COc1ccccc1-c1cc(N(C)Cc2ccco2)ncn1` the Potency was inconclusive: 25.1 µM [rising, single point].
For `O=C1CCCCC1Sc1nnc(Cc2cccs2)n1CCc1ccccc1` (stereo not given), the “activity change, negative = inhibition” value was inactive: -11.8%.
In the case of `O=C(CSc1nnc(COc2ccccc2Cl)o1)NC(=O)NC1CCCC1`, the “activity change, negative = inhibition” value is reported as inactive: -2.92%.
For `CC(C)c1nnc(NC(=O)C2CCN(c3nc4ccccc4s3)CC2)s1`, the activity change, negative = inhibition was inconclusive: -7.26%.
With `CC(=O)OCC(=O)[C@@]1(O)CC[C@@H]2[C@@H]3CCC4=CC(=O)CC[C@@]4(C)[C@H]3C(=O)C[C@]21C` the “activity change, negative = inhibition” value was inactive: 0.25%.
With `Cc1onc(-c2c(F)cccc2Cl)c1C(=O)Nc1nnc(C2CC2)s1` the activity change, negative = inhibition was inconclusive: -9.08%.
For `COc1ccc(-c2nc(CSCC(=O)NCc3ccc4c(c3)OCO4)c(C)o2)cc1OC`, the Potency was inconclusive: 10 µM [rising, partial curve].
For `CCCCS(=O)(=O)c1sc2nc3c(cc2c1N)CCCC3`, the Potency was inconclusive: 10 µM [rising, partial curve].
For `CCc1ccccc1-n1c(SCC(=O)Nc2ccc3c(c2)OCCO3)nc2[nH]ncc2c1=O`, the Potency was inconclusive: 3.98 µM [rising, partial curve].
For `COc1cc(NC(=O)c2cc(-c3cccs3)on2)cc(OC)c1OC`, the Potency was inconclusive: 7.94 µM [rising, partial curve].
For `CC(=O)N[C@H]1[C@@H](O[C@@H](C)C(=O)O)[C@H](O)[C@H](CO)O[C@@H]1O`, the “activity change, negative = inhibition” value was inactive: -7.64% [at 17.1 µM].
In the case of `COc1ccc(NC(=O)N2CC[C@@]3(CCCN(C(=O)c4cc(C(F)(F)F)cc(C(F)(F)F)c4)C3)C2)cc1`, the “activity change, negative = inhibition” value is reported as inactive: 2.98%.
With `COCCN(C(C)=O)c1nnc(-c2ccccn2)s1` the “activity change, negative = inhibition” value was inactive: 10.5%.
In the case of `Cc1cccc(N2CCN(c3nc4ccccc4n4cnnc34)CC2)c1C`, the “activity change, negative = inhibition” value is reported as inactive: 8.17%.
For `CC(C)Cn1cc(C(=O)NCCCN2CCCC2=O)c2c3ccccc3n(C)c2c1=O`, the “activity change, negative = inhibition” value was inactive: 18.3%.
In the case of `COC(=O)c1[nH]c2ccc(Br)cc2c1NC(=O)C(C)N1CCN(C2CCCCC2)CC1` (stereo not given), the “activity change, negative = inhibition” value is reported as inactive: -8.09%.
For `COC(=O)COc1ccc(S(=O)(=O)Nc2ccccc2C(=O)OC)cc1`, the “activity change, negative = inhibition” value was inactive: 10.9%.
In the case of `CCC(=O)N1CCN(c2cc3c(cc2F)c(=O)c(C(=O)O)cn3CC)CC1`, the “activity change, negative = inhibition” value is reported as inactive: 3.29%.
For `O=C(Nc1ccc(NC(=O)C2CCCCC2)cn1)c1ccco1`, the “activity change, negative = inhibition” value was inactive: -2.01%.
In the case of `CCOc1ncccc1C(=O)Oc1ccc2c(c1)OCO2`, the Potency is reported as inconclusive: 3.16 µM [falling, partial curve].
In the case of `CCOC(=O)N1CCC(N2C(=O)c3ccccc3C2Nc2cc(Cl)c(OC)cc2OC)CC1` (stereo not given), the Potency is reported as inconclusive: 12.6 µM [rising, partial curve].
With `CC(C)(C)n1ncc2c(=O)n(Cc3ccc(Cl)cc3Cl)cnc21` the Potency was inconclusive: 12.6 µM [rising, partial curve].
In the case of `O=C(NCc1ccco1)c1cccc(-c2nnc(-c3ccccc3)o2)c1`, the activity change, negative = inhibition is reported as inconclusive: -11.3%.
For `O=c1cc(N2CCN(c3ccccc3)CC2)[nH]c(=O)n1C1CCCCC1`, the Potency was inconclusive: 5.01 µM [falling, partial curve].
With `CN(C)c1ccc(Nc2nc(-c3cccnc3)cs2)cc1` the activity change, negative = inhibition was inconclusive: 15.6% [at 7.6 µM].
For `C=CCn1c(SCC(=O)NCCCC)nc2scc(-c3ccco3)c2c1=O`, the activity change, negative = inhibition was inconclusive: -12.1%.
In the case of `CCC(=O)c1ccccc1OCCSc1nc(C)cc(=O)[nH]1`, the Potency is reported as inconclusive: 5.01 µM [rising, partial curve].
For `COc1cc(-c2nc(S(=O)(=O)c3ccc(Cl)cc3)c(N(C)C)o2)cc(OC)c1OC`, the Potency was inconclusive: 3.16 µM [rising, partial curve].
With `COc1ccc(C(=O)Nc2nc3ccccc3[nH]2)cc1OC` the Potency was inconclusive: 7.94 µM [rising, partial curve].
With `Cc1noc(C)c1-c1nc(N2CCN(C)CC2)c2ccccc2n1` the activity change, negative = inhibition was inconclusive: 27.5%.
For `COc1ccc(C(=O)Cn2nnc(-c3ccccc3NC(=O)c3ccco3)n2)cc1`, the “activity change, negative = inhibition” value was inactive: 18.6%.
In the case of `CN(c1nc2ccccc2n2c(-c3ccco3)nnc12)S(=O)(=O)c1ccccc1`, the activity change, negative = inhibition is reported as inconclusive: -18.1%.
In the case of `CCOC(=O)C(CC)Sc1ncnc2nc[nH]c12` (stereo not given), the “activity change, negative = inhibition” value is reported as inactive: 5.3%.
For `O=C1CC(C(=O)Nc2ncccn2)C(c2ccccc2)O1` (stereo not given), the activity change, negative = inhibition was inconclusive: -0.359%.
With `Cc1nc2cnc(N(C)C)nc2n(C[C@H]2CCCO2)c1=O` the Potency was active: 10 µM.
In the case of `COCCN1C(=O)C(CC(=O)Nc2ccc(C(=O)O)cc2)SC1=Nc1ccccc1` (stereo not given), the activity change, negative = inhibition is reported as inconclusive: -4.04%.
In the case of `COc1nc(OCCNC(=O)Nc2ccccc2)nc(N(C)C)n1`, the Potency is reported as inconclusive: 12.6 µM [rising, partial curve].
In the case of `CC(=O)c1cccc(NC(=O)Cc2cccs2)c1`, the activity change, negative = inhibition is reported as inconclusive: -13.5% [at 7.6 µM].
With `COc1ccc(NC(=O)CSc2[nH]c(=O)cc(C)c2C#N)cc1OC` the Potency was inconclusive: 12.6 µM [rising, single point].
In the case of `c1ccc(CO[C@H]2NCCN2Cc2ccccc2)cc1`, the activity change, negative = inhibition is reported as inactive: 5.3% [at 7.6 µM].
